Measured values from the RNAGym collection of RNA variant scans (doi:10.1073/pnas.2313332121).
This sample is rich in variants without activity.

B1: TPR 5TU (parent)
chain: GGAUCUUCUCGAUCUAACAAAAAAGACAAAUCUGCCACAAAGCUUGAGAGCAUCUUCGGAUGCAGAGGCGGCAGCCUUCGGUGGCGCGAUAGCGCCAACGUUCUCAACUAUGACACGCAAAACGCGUGCUCCGUUGAAUGGAGUUUAUCAUG

Variants of: B1
Assay: polymerase ribozyme fitness, log enrichment relative to wild type (log ratio); higher = more active; in vitro selection for triplet polymerase activity
Summary of the method: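 Mutant libraries of each subunit of a heterodimeric triplet polymerase ribozyme were built by PCR and transcribed. Each library went through one round of in vitro selection in triplicate: annealing with biotinylated primer, partner subunit and triplets, frozen incubation at −7 °C, gel excision of extended constructs, streptavidin-bead capture and RT-PCR. Input and output libraries were Illumina-sequenced; only genotypes with ≥10 input reads and ≥1 read per output were kept. Fitness is log2(genotype enrichment/wild-type enrichment), using inverse-variance-weighted replicate averages.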

Polymerase ribozyme fitness (log ratio), 0.0565:
C18U A21C G141A

Polymerase ribozyme fitness (log ratio), -0.193:
C18G C85A U145G A147U

Polymerase ribozyme fitness (log ratio), -0.0606:
C18G U146C

Polymerase ribozyme fitness (log ratio), -4.07:
C18G A21C A52G G84U G133C U134C

Polymerase ribozyme fitness (log ratio), ≤ -4.2:
C18A A23G C57G C63G C85G A91U U139C
C18A A23U A24C A37U G42C C76G C93G G112U A142C
C18A A23U G58A A121G C132G
C18A A24U C51U U77C G84U C114A U135G U145C
C18A A29C C69U G80A C93A
C18A A52G C87A G92C C95A U104A
C18A A60C G67U C72U G83U A98C
C18A C27G C38U C93U A107C
C18A C85A G112C C116U
C18A C85U G88C C118A C131U
C18A G34U G71U C79G
C18A G50C G81U C93A C103G
C18A U31C C32G C35U G58C C85U
C18A U31G C35A A64G C79A G92U C93U C105U U134C
C18A U56A C75A G83A
C18G A19G C27A C87U G94C A137C
C18G A19U A20U C36U G68A C93G C108G
C18G A20C A28C G42C G81U G94U
C18G A20C C32A A40C U53A A91G
C18G A20C U55G U61G G68C A89G
C18G A20G C51A U77A C87G U144A
C18G A20U C38U G50A G86A C105A C116A A121U G141C
C18G A21C A22U A23G C35A C38A U61A G92U U102G C116G C118U A142C A150U
C18G A21C A49C C93A
C18G A21C G68U C96A C114A
C18G A22G A23C C69A G86U
C18G A23C G34A A66U G84U U135A
C18G A23C G46C A47G G80C C85A
C18G A23U A39G U55G A73U A89G A97U
C18G A23U G62C A97U U144C
C18G A24G A29C C75U C76A C87G
C18G A24G C57U C93G G94C G117C
C18G A24G G50A U56A G88U C93U G133U U148A
C18G A24G G50U U55A A106C C125A
C18G A24U A28U A52C C85U C93A A122U G124C U134C G140C
C18G A24U A40U C87A A97C U139G U144C
C18G A26G A40C A91G C95G A122G C149G
C18G A26U A47U G67C C105G U146A C149G
C18G A26U C35U U78A C99G U135C A147C
C18G A28G A52G G71A G92A U111C A122C A147U
C18G A28G A60C C76U C85U A110C G112C A119U A138U U139C
C18G A28U A66U G94U C95A
C18G A28U G48C A49C G84U C108G C116G
C18G A29G C57A C93U U104A U146G
C18G A29U C75G U78A C95G C105A C118U A142U
C18G A30U G42C A66U C95U U139C G143A
C18G A30U G50A C54U G67C G94A U111C G124C G141A G152A
C18G A30U U44A C76U G84A C85G
C18G A37C A52U U61G U82A G92A
C18G A40G A52C G58A G84U A91U U151G
C18G A40U G68A C72U
C18G A41U C76G C93A C125G U139C C149G
C18G A49C C57G C87A G128U U146G
C18G A49G A73U C93G G117A C123A G136U U144G
C18G A52C C69G C75G G94A C95U A113U
C18G A52G U61A G67U G68A C85A G88U U109G G140C
C18G A52U C76U C79G C132G U139C
C18G A66C C99G A147U
C18G C27U A40U C51U A52C C57G G88U C105U
C18G C32G A52C G58C A142C U145C U148G
C18G C32U A49C C85A U139A
C18G C35U C96A A97U C116U G117A A138C G140U
C18G C35U G83C G128U U151G
C18G C36A C103U U134C G141U
C18G C38A G81A U102G U109C U144C
C18G C51A U53A U55G A119U G126U U144A
C18G C51U U53G A60U C85A G94U A98U C99G
C18G C63G G68U G71A U78G C85G G100A G141U
C18G C76A C85U G141A
C18G C85A G88U C123G U148A
C18G G25A G50C
C18G G25U A28U G71C A91C C96U C114U A121C A137U
C18G G42A U45A G58U A122C A142G
C18G G48A C69U G88A A121U G141C
C18G G65C A73G C87A G88U A119C C131U
C18G G68C C116U G143C
C18G G80C
C18G G83U C87A C105G A137G
C18G G92U U104C U109C U139A
C18G U31A A107G
C18G U33G G68A G83A U139C
C18G U33G U101G A122G
C18G U44A A89U C93G U109C U127A
C18G U44C G58C U61G C85G C114U C118G
C18G U44G U55G G58C C93A
C18G U53A U139C
C18G U56A A60G G74A C85G
C18G U56A A64G C79U G88C A142U
C18G U56A C93A U134G U144A
C18U A19C C35A G83C C95U C103G A106G
C18U A19C C43U G81A G94U C118U G133U
C18U A19U A24G G74U C79U
C18U A19U A28C U56C C87U
C18U A19U G88A C95A C96U
C18U A20C C54U C93U C96G C105U U130A C132G
C18U A20G C76A U77A G92U U101A U134G
C18U A21C G42C C93U
C18U A21U G42A G58C C95U C116U U145C
C18U A22C A40C G42A C129G
C18U A22C U77G G83U G133U
C18U A22G A60G G65A C96U G140U
C18U A22U C43U C95U U101G G136A A138U
C18U A23C C85A G133C
C18U A23U A26U A30U C87U C96G C108U G136A
C18U A23U A28G A73U U78A G92U C95U A107G A122G
C18U A23U C57A G92C
C18U A24C A137G
C18U A24C C35U C79U C103G A119G
C18U A24C G84U A106G U109A A121U C131A G141A U145A
C18U A24G A37C
C18U A24G G25U G48A G50C C51A C76A G83A C85A U102G G143A
C18U A24G G50A C72U G92A U102G G117U A138U
C18U A24U A39G G80C A120C G126A G136C U145G
C18U A26C A39U A49C C57U
C18U A26G G58A C87A A97U G133A
C18U A26G U82G G92A
C18U A26U A29U G34U U55A A60C C76A G152U
C18U A28C C87G G124U U139G U146G
C18U A30C U31G A41C G83C G86U C105U
C18U A30G A142U U151G
C18U A30G C87U
C18U A37C A49C C51U U55A C95U U127A G136A U139A
C18U A37C G74C G81C
C18U A37U G83A C87U U90G A98C C116A G133U A137C
C18U A37U U55C C108A A110G
C18U A39U G86U U90A
C18U A40C A52G G86U U90C U135G
C18U A40U G59A U61G U78A G94A
C18U A41C C72U C93G U104G
C18U A47C C79G G88A A91C A121U U148G
C18U A49C C87G G100A
C18U A49G G50U A66C U78G C85G G88A A119G C125A
C18U A52G A89C C96G U109A A115U
C18U A52G A91G C123G
C18U A52G G94C A97C C114U C149A

Polymerase ribozyme fitness (log ratio), -4.15:
C18G U31C G59C G81A C116G A138G

Polymerase ribozyme fitness (log ratio), -3.95:
C18G G25C U33C C108G

Polymerase ribozyme fitness (log ratio), -3.76:
C18G A60C G84U C125U

Polymerase ribozyme fitness (log ratio), -2.81:
C18A G86U C103U U145A

Polymerase ribozyme fitness (log ratio), -2.91:
C18A U31G G84C A89U

Polymerase ribozyme fitness (log ratio), -1.03:
C18U A19G

Polymerase ribozyme fitness (log ratio), -0.291:
C18U A40C C57A G126U

Polymerase ribozyme fitness (log ratio), -0.856:
C18G U56G C85U

Polymerase ribozyme fitness (log ratio), -3.91:
C18U A40G C57G C95U

Polymerase ribozyme fitness (log ratio), -1.62:
C18G G80U C116U

Polymerase ribozyme fitness (log ratio), -4.01:
C18G A37C C93A A115G

Polymerase ribozyme fitness (log ratio), -3.44:
C18G A41U A47C A49G G86A U104G

Polymerase ribozyme fitness (log ratio), -0.371:
C18G C57U

Polymerase ribozyme fitness (log ratio), -1.81:
C18G A19U G62C C85U C116A

Polymerase ribozyme fitness (log ratio), 0.206:
C18G C95U

Polymerase ribozyme fitness (log ratio), -2.01:
C18U A19G G94A

Polymerase ribozyme fitness (log ratio), -2.88:
C18A C69G C96U C103A

Polymerase ribozyme fitness (log ratio), -2.06:
C18A G58A G86U A119U

Polymerase ribozyme fitness (log ratio), -1.15:
C18G A52G C87U

Polymerase ribozyme fitness (log ratio), -2.16:
C18G A137G U145G

Polymerase ribozyme fitness (log ratio), -3.75:
C18G A21U A29C A37U C57U C95U U127G U148G

Polymerase ribozyme fitness (log ratio), -4.08:
C18G G50U G88A

Polymerase ribozyme fitness (log ratio), -1.83:
C18G A49U A119G

Polymerase ribozyme fitness (log ratio), -3.18:
C18G C57A U134G U145A
C18G G50A C76U A115G A119G

Polymerase ribozyme fitness (log ratio), -2.27:
C18G G84C G126U

Polymerase ribozyme fitness (log ratio), -3.87:
C18G U55A A98G A106G G112U A120U

Polymerase ribozyme fitness (log ratio), -4.17:
C18A C27A A40U C87U C118U
